Source: PubChem BioAssay AID485313 (National Center for Advancing Translational Sciences (NCATS), 2010)
Among all 320,000 compounds or so, about 7,600 (2.4%) were called active. This list was built around the results that the source calls inconclusive (neither active nor inactive); the mix of calls is not that of the screen. The call rests on the fitted dose curve; in most records, active means well fitted activation curve with a large enough effect; inconclusive means small, poorly fitted or top-dose-only effect; inactive means no such curve, though single readings can be large or run the other way. Potencies of inconclusive entries are left out as doubtful fits.

experiment: qHTS Assay for NPC1 Promoter Activators; details: Huh7 NPC1 promoter luciferase reporter, 24 h; series mostly up to 9.22 µM; activation: at the top concentration; further: nearly all actives have a fitted effect of over 60% in size;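 on activation: reporter is driven by a mutant NPC1 promoter; % of control where 0% means no effect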
Procedure, shortened: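 NPC1 promoter–luciferase Huh7 cells; 24 h compound; luminescence.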
Potency means the concentration at half of the fitted maximal effect; tags describe the fitted curve by direction and shape.

Compound | Potency | activation
O=C(N/N=C/c1ccccn1)c1cc(C2CC2)[nH]n1 | inconclusive [activator, partial curve] | –
Cc1ccc(NCC(=O)N=Nc2c(O)[nH]c3ccc([N+](=O)[O-])cc23)cc1 | inconclusive [activator, partial curve] | –
O=C(CSCc1ccco1)N1CCc2ccccc21 | active: 2.82 µM | –
O=C(/C=C/c1cccs1)Nc1ccc(Br)cn1 | inconclusive [activator, single point] | –
CCc1ccc(NC(=O)Nc2ccon2)cc1 | active: 2.24 µM | –
O=C(NCc1ccccn1)C1CC(c2ccc(F)cc2)=NO1 (configuration not stated) | inconclusive [activator, single point] | –
COc1ccccc1NC(=O)C(=O)c1cn(CC(=O)N2CCCC2)c2ccccc12 | inconclusive [activator, single point] | –
CCC(C)NC(=O)CSc1nnc(-c2cc(-c3ccc(C)cc3)nc3ccccc23)n1N (configuration not stated) | – | inactive: -0.892%
O=C(c1ccc(Cl)cc1)C(CN1CCCC1)c1ccccc1 (configuration not stated) | – | inactive: -18.5%
CNc1nc(Nc2ccc(Br)cc2)nc(N)c1[N+](=O)[O-] | inconclusive [activator, single point] | –
CCN(CC)S(=O)(=O)c1ccc(NC(=O)COC(=O)c2ccc(-n3nc(C)cc3C)cc2)cc1 | – | inactive: -0.504%
O=C(CCCC(=O)N(CC(=O)NC1CCCCC1)c1cccc(F)c1)Nc1ccccn1 | inconclusive [activator, partial curve] | –
Nc1c(Cl)c(Cl)nc(C(=O)N/N=C/c2ccco2)c1Cl | – | inactive: 23.6%
COc1ccc(NC(=O)N2CCCc3ccccc32)cc1 | – | inactive: 12.7%
Cc1cc(C(=O)N/N=C2\CC(=O)c3ccccc32)c(C)n1-c1ccccc1 | inconclusive [activator, single point] | –
Cc1ccccc1-c1noc(-c2cccs2)n1 | inconclusive [activator, partial curve] | –
O=C(Nc1ccccc1)c1ccn[nH]1 | active: 3.55 µM | –
Cc1ccc(NC(=O)c2ccc3ccccc3n2)cc1S(=O)(=O)N(C)C | inconclusive [activator, single point] | –
CN(CCO)c1ccc(/C=N/Nc2nncc3ccccc23)cc1 | inconclusive [activator, full curve] | –
Cc1ccccc1NC(=O)c1sc2nc3c(c(-c4ccco4)c2c1N)CCC3 | – | inactive: -1.68%
CCOC(=O)c1c(NC(=O)c2cc(C)on2)c2cc([N+](=O)[O-])ccc2n1C | – | inactive: -0.795%
CCOc1cc(N2CCOCC2)c(OCC)cc1NC(=O)COC(=O)CCn1c(C)csc1=O | – | inactive: -3.67%
Cn1c(=NC(=O)c2ccccc2[N+](=O)[O-])sc2cccc(F)c21 | active: 0.562 µM | –
CCc1ccc(OCC(=O)NCc2ccco2)c(Br)c1 | inconclusive [activator, single point] | –
O=C(Nc1ccc(N2CCOCC2)cc1)c1cnsn1 | inconclusive [activator, full curve] | –
Cc1ccc(NC(=O)C(=O)NCc2ccccn2)cc1 | inconclusive [activator, partial curve] | –

Compound | Potency | activation
O=C(CC1CC2CCC1C2)NC1CCCCCCC1 (configuration not stated) | inconclusive [activator, single point] | –
Cc1nc(NC(=O)/C=C/c2ccccc2)sc1C(=O)Nc1ccccc1Cl | – | inactive: 0.952%
O=C(CSc1ncccc1C(=O)O)c1ccc2ccccc2c1 | inconclusive [activator, partial curve] | –
Oc1ccccc1/C=N/NC(=S)NC1CC2CCC1C2 (configuration not stated) | active: 2 µM | –
CC(=C/c1ccc(C(C)C)cc1)/C=N/NC(=O)CSc1ccccn1 | inconclusive [activator, single point] | –
CC(C)(C)OC(=O)CNC(=O)c1nc[nH]c1C(=O)NCc1ccc(CNC(=O)OC(C)(C)C)cc1 | – | inactive: 1.01%
CCOCCCNC(=O)c1ccc2c(c1)ncn2-c1ccc(CC)cc1 | inconclusive [activator, single point] | –
O=C(c1ccc(F)cc1)c1ccc(-c2ccc(F)cc2)nc1 | inconclusive [activator, single point] | –
Cc1ccc(-c2cc(C(=O)N3CCCC3)no2)cc1 | inconclusive [activator, full curve] | –
Cc1cccc(-c2noc(-c3ccccc3C(=O)NCC3CCCO3)n2)c1 (configuration not stated) | inconclusive [activator, partial curve] | –
N#C/C(=C(/O)c1cccc(F)c1)c1nc2ccccc2s1 | inconclusive [activator, partial curve] | –
O=C(N/N=C/c1cccc([N+](=O)[O-])c1)c1cc2c(ccc3ccccc32)o1 | inconclusive [activator, single point] | –
O=C(O)C1=CC[C@@H](c2ccc(Cl)cc2)N(S(=O)(=O)c2ccc(Cl)cc2)[C@H]1c1ccccc1 | inconclusive [activator, single point] | –
O=C(Cn1nc(C(=O)O)c2ccccc2c1=O)Nc1ccc2c(c1)C(=O)c1ccccc1C2=O | inconclusive [activator, partial curve] | –
O=C(Nc1ccc2c(c1)OCO2)C1COc2ccccc2O1 (configuration not stated) | inconclusive [activator, partial curve] | –
c1ccc2oc(C3=NNC(=NC4CC4)SC3)cc2c1 | active: 0.282 µM | –
C=CCn1c(C)cc(C(=O)CSc2nc3ccccc3[nH]2)c1C | active: 0.126 µM | –
COCCNC(=O)C(=O)Nc1ccc(Br)cc1 | inconclusive [activator, partial curve] | –
O=C(Nc1ccc(S(=O)(=O)N2CCCCC2)cc1)c1ccc(CN2CCOCC2)cc1 | – | inactive: -27.5%
COc1ccccc1C(=O)Nc1cc(-c2ccc(C)cc2)no1 | inconclusive [activator, single point] | –
O=C(CC(=O)c1ccccc1)Nc1ccc2c(c1)OCCO2 | active: 2.51 µM | –
Cn1cc(/C=N/NC(=O)c2ccccc2O)c2ccccc21 | inconclusive [activator, single point] | –
O=C(Nc1cnn(Cc2ccc(F)cc2)c1)c1noc2c1CCCC2 | inconclusive [activator, partial curve] | –
O=[N+]([O-])c1ccccc1-c1ccc(C(=S)N2CCCCC2)o1 | active: 2 µM | –
NC(=O)c1ccsc1NC(=O)CSc1ccccc1F | inconclusive [activator, partial curve] | –
Cn1cc(CNC(=O)c2ccc3nc(Cc4ccccc4F)oc3c2)cn1 | active: 2.82 µM | –

Compound | Potency | activation
Cc1ccccc1OCCCCn1cnc2ccccc21 | – | inactive: -9.4%
O=C(Nc1ccn(Cc2ccccc2)n1)c1ccc2c(c1)OCO2 | inconclusive [activator, partial curve] | –
Cc1ccc(/C=N/Nc2cccc3cccnc23)c(O)c1 | active: 3.98 µM | –
COc1ccc2c(c1)CCc1c(C(=O)NC3CCCCC3)noc1-2 | active: 1.41 µM | –
O=C(OCCN1CCCCC1)c1cc2ccccc2o1 | – | inactive: 3.59%
Cc1ccc2c(COC(=O)c3ccccc3F)cc(=O)oc2c1 | inconclusive [activator, single point] | –
O=C(Nc1nc(-c2ccc(S(=O)(=O)N3CCOCC3)cc2)cs1)c1ccccc1 | – | inactive: -22%
Clc1ccc(CSc2ccc(-c3ccco3)nn2)cc1 | inconclusive [activator, partial curve] | –
CC(=O)N(/N=C1\Sc2ccccc2C1=O)c1ccccc1C | inconclusive [activator, single point] | –
O=C(NC(=S)N1CCN(c2nc(-c3ccccc3)cs2)CC1)c1cncc(Br)c1 | – | inactive: -7.98%
CC(C)(C)NC(=O)CSc1nc(-c2ccc(F)cc2)cs1 | active: 3.55 µM | –
Cc1ccc(-n2c(C)nn(CCOc3ccccc3)c2=O)cc1 | inconclusive [activator, partial curve] | –
CCOC(=O)C1CCN(C(=O)CCCOc2ccccc2)CC1 | inconclusive [activator, single point] | –
CC1CCN(c2ncnc3c2cnn3-c2ccccc2)CC1 | active: 0.891 µM | –
COc1ccc(OCc2cc(C(=O)NC3CCOC(C)(C)C3)no2)c2ccccc12 (configuration not stated) | active: 2.82 µM | –
Nc1nc(Nc2ccc(Cl)cc2)nc(NCc2ccco2)c1[N+](=O)[O-] | inconclusive [activator, partial curve] | –
Cc1ccccc1-c1nnc(SCC(=O)N2CCCC2)o1 | inconclusive [activator, partial curve] | –
Cc1ccccc1OCC(=O)Nc1nc2ccccc2[nH]1 | inconclusive [activator, single point] | –
N#Cc1ccccc1S(=O)(=O)N1CCN(c2cnccn2)CC1 | – | inactive: -4.01%
COC(=O)c1ccccc1NC(=O)c1ccc2c(c1)OCCCO2 | inconclusive [activator, partial curve] | –
CCCc1cc(-c2[nH]ncc2-c2ccc3c(c2)OCCCO3)c(O)cc1O | inconclusive [activator, single point] | –
Cc1nc2ccc(NC(=O)NCCCO)cc2s1 | inconclusive [activator, partial curve] | –
O=C1CCCC(O)=C1C=Nc1ccc(O)cc1 | – | inactive: 5.66%
Fc1ccc(-c2nnc(-c3ccc(F)cc3)o2)cc1 | active: 2.82 µM | –
CCOC(=O)C1(Cc2cccc(OC)c2)CCCN(C(=O)c2cc(CC(C)C)[nH]n2)C1 (configuration not stated) | inconclusive [activator, partial curve] | –
